This passage reports displacement results from PubChem BioAssay AID1240 (Sanford-Burnham Center for Chemical Genomics, 2008).

Molecules are shown by their SMILES. The campaign covered roughly 50,000 compounds. About 800 (1.6%) showed an effect of 50% or more. The list shows a part of the results.

The target of the assay is Bcl-2-like protein 10 (Homo sapiens) (UniProt Q9HD36). The assay can be described thus: TR3 peptide-Bcl-B binding displacers, biochemical primary FP assay, phenotype converters (AID 1240).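 Also: 0% = Bcl-B with tracer peptide and DMSO and 100% = tracer peptide lacking Bcl-B.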 The conditions noted are these: GST-Bcl-B / FITC-TR3 peptide fluorescence polarization; stronger effect = higher value; compound at 3.75 mg/L. A general note: Fluorescence polarisation rises when a labelled molecule tumbles more slowly, as on binding a larger partner.
Sequence of UniProt Q9HD36 (Q9HD36 whole entry, looked up): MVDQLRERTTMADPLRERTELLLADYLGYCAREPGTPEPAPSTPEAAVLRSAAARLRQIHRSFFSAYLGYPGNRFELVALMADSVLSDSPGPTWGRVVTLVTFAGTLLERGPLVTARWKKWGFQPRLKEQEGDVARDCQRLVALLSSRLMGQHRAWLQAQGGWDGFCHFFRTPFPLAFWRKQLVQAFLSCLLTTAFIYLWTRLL
As to `O=C1N(c2ccccc2)C2CS(=O)(=O)CC2N1c1ccc(Cl)cc1` (stereo not drawn), the displacement stood at 4.6%.

On to `Cc1cc[n+](CC(=O)N(c2ccccc2)C(C)C)cc1`, for which the displacement is -9.9%. The same measure for `COc1ccc(OCCCOc2ccc(Cl)c(C)c2)cc1`: 15.4%.

As to `CCOc1ccc2c(c1)C(=C1SC(C(=O)OC)=C(C(=O)OC)S1)C(=S)C(C)(C)N2C(=O)c1cccc(OC)c1`, the displacement is -12.8%.

Turning to `O=C(Nc1ccc(F)c(Cl)c1)c1nn2c(c1Cl)NC(c1ccccc1)CC2C(F)(F)F` (stereo not drawn), the displacement amounted to 5.1%.

As to `O=C(/C=C/c1ccc(F)cc1)N1CCC(CN2C(=O)c3cccc4cccc(c34)C2=O)CC1`, the displacement was determined as 7.1%. The same measure for `O=C(O)CN1C(=O)/C(=C\c2cc(Cc3ccccc3)cc([N+](=O)[O-])c2O)SC1=S`: -9.8%. The same measure for `COc1ccc(/C=C2/SC(=Nc3ccccc3)NC2=O)cc1O`: -4.5%; for `CCOC(=O)C(C#N)C(=S)Nc1ccccc1` (stereo not drawn): 2.7%.

With `CCN(CC)CCCCCCOc1ccccc1OC`, the displacement came out at 11%.

As for `COC(=O)NC(NC(=O)OC)c1ccc(F)cc1`, the displacement is -1.3%. The same measure for `CS(=O)(=O)N(Cc1ccc(C(=O)Nc2ccc(Oc3ccccc3)cc2)cc1)c1ccccc1`: 7.7%. The same measure for `COc1cc(-c2noc(-c3ccc(C)cc3)n2)cc(OC)c1OC`: 10.8%; for `Cc1cc(C)cc(N(CC(=O)NCCSc2nc3ccccc3s2)S(=O)(=O)c2ccccc2)c1`: 15.1%. The same measure for `CC(C)c1ccc(/C=C(\NC(=O)c2ccccc2)C(=O)NCc2ccco2)cc1`: 11.2%; for `CCOC(=O)c1c(NC(=O)CN2C(=O)c3ccccc3C2=O)sc2c1CCCC2`: -1.2%; for `COc1ccc(C(=O)Nc2cccc(C)c2C)cc1`: -5.5%. As for `O=C(COc1ccc([N+](=O)[O-])cc1)Nc1ccc(Cl)cn1`, the displacement was -2.9%. As for `COc1ccccc1-c1coc2cc(OC(=O)c3ccc(Cl)cc3Cl)ccc2c1=O`, the displacement came to 63.9%. For `O=C(O)C1C2CCC(O2)C1C(=O)N1CCN(C(c2ccccc2)c2ccccc2)CC1` (stereo not drawn) the value was 9%. The same measure for `CCOc1cccc(C(=O)Nc2ccc(C)cc2[N+](=O)[O-])c1`: 8.1%; for `C/C=C/C=C/C(=O)Nc1cccc(C(=O)/C=C/c2ccccc2)c1`: 14.3%. In the case of `Cc1cccc(C)c1NS(=O)(=O)c1cccc2cccnc12`, the displacement stood at 3.3%. The same measure for `O=c1[nH]cnc2c1C1(CCCC1)Cc1ccccc1-2`: -6.4%. For `O=C(Nc1nc(-c2ccc(Cl)cc2)cs1)c1ccc(S(=O)(=O)N2CCOCC2)cc1` the value was -6.7%; for `Cc1ccc(N(CC(=O)Nc2ccccc2F)S(=O)(=O)c2ccccc2)c(C)c1`, 4.5%.

As to `O=C1c2cccc([N+](=O)[O-])c2C(=O)N1c1ccccn1`, the displacement was 1.8%.

As for `COCc1cc(=O)n2[nH]c(-c3ccc(C)cc3)cc2n1`, the displacement was determined as 5.1%. The same measure for `O=c1c(C=NCc2cccs2)c(C(F)(F)F)[nH]n1-c1nc2ccccc2s1`: -13.8%; for `CCOc1ccc(CNC23CN4CN(CN(C4)C2)C3)cc1`: -5.3%.

Regarding `O=C(O)c1ccccc1NC(=O)c1ccccc1-c1ccccc1C(=O)O`, the displacement is -4.5%.

Regarding `COc1cc(C(c2c(C)[nH][nH]c2=O)c2c(C)[nH][nH]c2=O)ccc1OC(=O)c1ccccc1Cl`, the displacement is -21%. For `COc1cc([N+](=O)[O-])ccc1NC(=O)c1cccc(I)c1`, the displacement was -9.7%.

Turning to `COc1ccc(N2C(=O)/C(=C\c3cccc(C(F)(F)F)c3)SC2=S)cc1`, the displacement was determined as 14.9%.

`Cc1nc(NC(=S)Nc2ccccc2)sc1C`: the displacement was -16.7%. For `Cc1cccn2c(=O)c(/C=C3\SC(=S)N(C(C)c4ccccc4)C3=O)c(NCCCn3ccnc3)nc12` (stereo not drawn) the value was 8.8%; for `CCOc1ccccc1NC(=O)NS(=O)(=O)c1ccc(C)cc1`, 11.9%; for `CSc1ccccc1NC(=O)c1nn2c(c1Cl)NC(c1ccco1)CC2C(F)(F)F` (stereo not drawn), 4.8%. For `COC(=O)C1=C(C)NC(=O)CC1c1cc([N+](=O)[O-])ccc1Cl` (stereo not drawn) the value was -3%; for `Cc1ccc(N=Cc2ccc([N+](=O)[O-])s2)c(C)c1`, 1.8%; for `O=C(N/N=C/c1ccccc1O)c1n[nH]c2c1CCC2`, -21.4%. For `COc1ccc(N(CC(=O)Nc2ccc(C)cc2C)S(C)(=O)=O)cc1` the value was 2.2%; for `Cc1cc(Cl)ccc1OCC(=O)NNC(=O)Cc1ccc(Cl)cc1`, -7.4%. `COc1ccc(/C(O)=C2/C(=O)C(=O)N(CCCCCC(=O)O)C2c2ccccc2[N+](=O)[O-])cc1` (stereo not drawn): the displacement is -0.2%.

Take `CN(C)CCN1C(=O)C(=O)/C(=C(/O)c2ccccc2)C1c1ccccc1F` (stereo not drawn): the displacement is -14.8%. For `COc1ccc(OC)c(N=Cc2c(O)n(-c3ccc(F)cc3)c(=O)[nH]c2=O)c1` the value was -17.7%; for `O=C1N(c2ccccc2)C(c2ccc(Cl)cc2)N2CCCN12` (stereo not drawn), -9.6%; for `C=CCN1C(=O)C(Cc2ccccc2)S/C1=N/N=C/c1ccccc1` (stereo not drawn), 3%. For `COc1ccc(Cl)cc1NC(=O)CN(c1ccccc1)S(=O)(=O)c1ccccc1[N+](=O)[O-]` the value was 15.4%; for `O=C(/C=C/c1ccc(Cl)cc1)Nc1ccc(-c2nc3ccccc3s2)c(O)c1`, 25.2%. For `COC(=O)c1ccc(N2C(=O)c3cccc([N+](=O)[O-])c3C2=O)cc1` the value was -0.7%; for `Cc1cccc(/C=N/N2CCN(Cc3cccc4ccccc34)CC2)c1`, 7.6%; for `O=C1c2ccccc2-c2onc3c(Br)cc(O)c1c23`, 11.6%. With `CC(NC(=O)C1CC(=O)N(c2ccc(Br)cc2)C1)c1ccccc1` (stereo not drawn), the displacement turned out to be 4.4%. For `Cc1ccc(CN2CCN(/N=C\c3ccc(O)cc3O)CC2)cc1` the value was -1%. The same measure for `COC(=O)c1c(NC(=O)c2ccccc2Cl)sc2c1CCCCCC2`: -8.4%; for `CC(=O)Oc1ccc(C(=O)Nc2cc(C)on2)cc1`: 4.2%. The same measure for `COC(=O)c1c(NC(=O)c2c(OC)cccc2OC)sc2c1C(C(=O)OC)CC2` (stereo not drawn): -3.2%.

Regarding `O=C(COc1ccc2ccccc2c1)NC1C2CC3CC(C2)CC1C3` (stereo not drawn), the displacement turned out to be 11.6%. `Cc1c(Br)c([N+](=O)[O-])nn1CC(=O)NC1CCCCC1`: the displacement is -6.1%. The same measure for `COc1cc(C(C)=O)ccc1OC(=O)c1ccc([N+](=O)[O-])cc1Cl`: 0.5%; for `C(=C\c1ccccc1)/CSc1nnc(-c2ccc3c(c2)OCO3)n1-c1ccccc1`: -3.9%. The same measure for `O=C(O)CC12CC3CC(CC(S)(C3)C1)C2`: 19.9%; for `CCCCOc1ccc2ccc(=O)oc2c1`: 39.9%. For `C#CCSc1nc2ccccc2n1C(=O)/C=C/c1cccc([N+](=O)[O-])c1` the value was 6.3%; for `Cc1ccc(NC2=C(Cl)C(=O)N(c3ccccc3Cl)C2=O)cc1Cl`, -4.4%; for `COc1ccc(NC(=O)c2ccccc2F)cc1OC`, -5.4%.

On to `O=C(Nc1ccccc1)/C(=C\c1cccc(Br)c1)NC(=O)c1ccccc1`, for which the displacement was determined as 4.5%.
